No constants are given. Whether binding was seen depends on the method and setting. In cells and extracts the contact can be indirect. Some results given as binding are weak or reduced against the parent protein; the word gives no strength.

Protein sequences, listed by entry. Tags and fused reporters are not part of them.
UniProt Q9R0L6: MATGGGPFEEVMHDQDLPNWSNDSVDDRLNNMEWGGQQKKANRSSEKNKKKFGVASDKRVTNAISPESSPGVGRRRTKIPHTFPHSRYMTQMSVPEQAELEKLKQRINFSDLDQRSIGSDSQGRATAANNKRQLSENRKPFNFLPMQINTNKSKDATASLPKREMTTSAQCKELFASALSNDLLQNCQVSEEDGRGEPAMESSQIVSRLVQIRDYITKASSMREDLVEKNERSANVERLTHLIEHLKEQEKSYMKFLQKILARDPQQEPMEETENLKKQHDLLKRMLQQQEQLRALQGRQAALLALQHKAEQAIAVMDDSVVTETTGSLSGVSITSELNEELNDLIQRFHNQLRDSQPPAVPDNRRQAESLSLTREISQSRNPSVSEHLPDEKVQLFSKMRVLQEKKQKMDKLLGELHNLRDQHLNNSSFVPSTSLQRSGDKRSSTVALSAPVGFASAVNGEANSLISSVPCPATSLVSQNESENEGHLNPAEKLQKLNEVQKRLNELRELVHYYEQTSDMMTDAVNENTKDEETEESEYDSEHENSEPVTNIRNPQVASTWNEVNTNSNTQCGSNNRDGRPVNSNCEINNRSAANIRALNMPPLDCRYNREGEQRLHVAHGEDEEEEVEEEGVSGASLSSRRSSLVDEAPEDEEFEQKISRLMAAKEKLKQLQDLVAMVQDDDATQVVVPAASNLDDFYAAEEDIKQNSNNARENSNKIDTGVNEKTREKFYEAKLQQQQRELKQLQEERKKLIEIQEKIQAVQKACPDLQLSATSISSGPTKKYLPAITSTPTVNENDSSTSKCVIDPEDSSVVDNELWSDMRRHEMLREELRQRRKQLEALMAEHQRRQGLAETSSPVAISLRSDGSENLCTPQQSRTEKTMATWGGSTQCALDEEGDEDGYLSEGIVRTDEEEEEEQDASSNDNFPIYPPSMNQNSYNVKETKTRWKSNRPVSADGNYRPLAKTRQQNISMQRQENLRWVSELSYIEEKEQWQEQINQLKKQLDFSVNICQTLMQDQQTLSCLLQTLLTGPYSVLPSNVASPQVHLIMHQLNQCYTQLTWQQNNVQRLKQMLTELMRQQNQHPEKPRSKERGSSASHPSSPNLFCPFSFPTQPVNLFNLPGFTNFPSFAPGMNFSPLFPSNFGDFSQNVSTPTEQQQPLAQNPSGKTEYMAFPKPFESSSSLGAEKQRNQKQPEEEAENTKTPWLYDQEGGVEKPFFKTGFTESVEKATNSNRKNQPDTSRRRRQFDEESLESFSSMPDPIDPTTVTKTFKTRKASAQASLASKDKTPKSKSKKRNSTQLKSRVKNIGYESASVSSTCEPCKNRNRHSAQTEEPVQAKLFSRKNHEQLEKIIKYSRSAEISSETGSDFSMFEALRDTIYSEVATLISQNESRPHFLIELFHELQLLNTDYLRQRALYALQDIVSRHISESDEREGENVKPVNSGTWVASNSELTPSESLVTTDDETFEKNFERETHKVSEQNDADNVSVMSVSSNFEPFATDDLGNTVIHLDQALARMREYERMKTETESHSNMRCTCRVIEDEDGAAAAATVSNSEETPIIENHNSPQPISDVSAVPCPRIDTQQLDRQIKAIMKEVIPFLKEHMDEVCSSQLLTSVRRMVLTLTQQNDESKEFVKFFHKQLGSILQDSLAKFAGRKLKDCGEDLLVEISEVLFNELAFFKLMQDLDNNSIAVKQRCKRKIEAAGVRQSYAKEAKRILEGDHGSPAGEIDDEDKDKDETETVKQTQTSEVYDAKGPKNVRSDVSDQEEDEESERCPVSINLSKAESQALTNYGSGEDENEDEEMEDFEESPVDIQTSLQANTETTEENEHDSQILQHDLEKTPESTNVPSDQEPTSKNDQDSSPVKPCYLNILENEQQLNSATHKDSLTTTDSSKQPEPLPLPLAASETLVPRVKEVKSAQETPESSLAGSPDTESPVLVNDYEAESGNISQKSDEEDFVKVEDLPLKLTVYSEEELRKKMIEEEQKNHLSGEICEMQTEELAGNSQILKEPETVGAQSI
UniProt Q6VH22: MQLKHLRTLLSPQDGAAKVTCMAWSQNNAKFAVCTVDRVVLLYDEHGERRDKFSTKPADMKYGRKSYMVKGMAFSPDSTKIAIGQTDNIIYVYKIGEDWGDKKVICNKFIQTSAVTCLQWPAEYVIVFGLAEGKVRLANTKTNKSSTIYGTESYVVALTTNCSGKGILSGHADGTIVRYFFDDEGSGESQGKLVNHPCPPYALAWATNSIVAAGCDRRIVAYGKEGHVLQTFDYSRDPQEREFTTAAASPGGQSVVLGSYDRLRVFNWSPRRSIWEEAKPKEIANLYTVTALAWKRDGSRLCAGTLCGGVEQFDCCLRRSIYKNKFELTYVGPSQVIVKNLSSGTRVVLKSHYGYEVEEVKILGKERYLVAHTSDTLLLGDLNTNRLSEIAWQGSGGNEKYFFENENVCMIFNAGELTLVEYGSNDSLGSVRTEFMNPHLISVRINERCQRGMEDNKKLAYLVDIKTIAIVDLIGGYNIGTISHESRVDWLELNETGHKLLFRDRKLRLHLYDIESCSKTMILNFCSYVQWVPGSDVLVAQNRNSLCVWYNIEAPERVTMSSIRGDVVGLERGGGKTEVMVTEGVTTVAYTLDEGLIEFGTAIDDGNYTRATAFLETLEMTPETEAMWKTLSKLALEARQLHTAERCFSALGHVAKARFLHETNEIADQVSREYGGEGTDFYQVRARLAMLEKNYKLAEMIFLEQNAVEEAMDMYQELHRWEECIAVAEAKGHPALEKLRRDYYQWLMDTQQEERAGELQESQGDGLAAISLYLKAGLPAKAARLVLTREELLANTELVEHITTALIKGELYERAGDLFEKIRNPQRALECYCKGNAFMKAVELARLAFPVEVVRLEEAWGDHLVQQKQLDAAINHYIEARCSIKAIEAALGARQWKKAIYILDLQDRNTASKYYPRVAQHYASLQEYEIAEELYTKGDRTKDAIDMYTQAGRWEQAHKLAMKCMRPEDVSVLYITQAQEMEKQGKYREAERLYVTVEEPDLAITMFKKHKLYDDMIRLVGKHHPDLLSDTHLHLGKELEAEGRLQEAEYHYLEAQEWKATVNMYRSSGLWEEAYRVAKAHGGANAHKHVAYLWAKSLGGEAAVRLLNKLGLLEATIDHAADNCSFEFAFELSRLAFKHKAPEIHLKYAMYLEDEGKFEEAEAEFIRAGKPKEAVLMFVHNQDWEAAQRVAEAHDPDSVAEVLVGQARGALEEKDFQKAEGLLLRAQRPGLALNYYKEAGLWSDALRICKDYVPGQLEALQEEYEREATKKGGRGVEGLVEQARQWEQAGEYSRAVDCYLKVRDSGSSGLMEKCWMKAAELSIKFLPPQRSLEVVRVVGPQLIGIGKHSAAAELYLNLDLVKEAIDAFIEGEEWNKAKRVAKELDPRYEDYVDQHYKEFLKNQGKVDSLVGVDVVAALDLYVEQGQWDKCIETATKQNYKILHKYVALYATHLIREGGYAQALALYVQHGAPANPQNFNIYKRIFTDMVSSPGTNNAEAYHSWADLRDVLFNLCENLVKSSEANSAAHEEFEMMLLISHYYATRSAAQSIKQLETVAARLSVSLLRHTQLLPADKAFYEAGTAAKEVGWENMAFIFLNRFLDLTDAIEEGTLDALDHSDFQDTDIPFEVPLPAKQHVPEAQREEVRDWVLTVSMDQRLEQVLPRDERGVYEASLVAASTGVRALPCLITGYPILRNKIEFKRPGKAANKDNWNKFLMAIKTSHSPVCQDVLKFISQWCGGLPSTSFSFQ
UniProt P28741: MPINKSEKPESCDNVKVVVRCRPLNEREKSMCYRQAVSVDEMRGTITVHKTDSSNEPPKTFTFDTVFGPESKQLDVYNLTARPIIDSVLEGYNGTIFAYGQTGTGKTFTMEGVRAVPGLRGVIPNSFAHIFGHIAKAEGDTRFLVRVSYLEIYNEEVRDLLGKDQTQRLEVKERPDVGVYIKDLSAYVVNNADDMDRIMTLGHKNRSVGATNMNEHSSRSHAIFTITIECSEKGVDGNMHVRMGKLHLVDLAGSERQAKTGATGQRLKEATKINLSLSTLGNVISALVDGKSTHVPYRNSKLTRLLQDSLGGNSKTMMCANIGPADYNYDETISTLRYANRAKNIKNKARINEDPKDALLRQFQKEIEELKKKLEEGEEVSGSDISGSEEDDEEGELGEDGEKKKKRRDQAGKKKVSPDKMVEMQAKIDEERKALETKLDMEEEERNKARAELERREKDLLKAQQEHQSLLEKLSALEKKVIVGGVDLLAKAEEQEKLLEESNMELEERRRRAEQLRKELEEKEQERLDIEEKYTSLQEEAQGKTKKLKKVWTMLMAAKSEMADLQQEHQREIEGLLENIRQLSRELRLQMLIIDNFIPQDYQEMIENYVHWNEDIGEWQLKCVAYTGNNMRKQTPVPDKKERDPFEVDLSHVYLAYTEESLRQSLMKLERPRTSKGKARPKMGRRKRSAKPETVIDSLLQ
UniProt Q8BIL5: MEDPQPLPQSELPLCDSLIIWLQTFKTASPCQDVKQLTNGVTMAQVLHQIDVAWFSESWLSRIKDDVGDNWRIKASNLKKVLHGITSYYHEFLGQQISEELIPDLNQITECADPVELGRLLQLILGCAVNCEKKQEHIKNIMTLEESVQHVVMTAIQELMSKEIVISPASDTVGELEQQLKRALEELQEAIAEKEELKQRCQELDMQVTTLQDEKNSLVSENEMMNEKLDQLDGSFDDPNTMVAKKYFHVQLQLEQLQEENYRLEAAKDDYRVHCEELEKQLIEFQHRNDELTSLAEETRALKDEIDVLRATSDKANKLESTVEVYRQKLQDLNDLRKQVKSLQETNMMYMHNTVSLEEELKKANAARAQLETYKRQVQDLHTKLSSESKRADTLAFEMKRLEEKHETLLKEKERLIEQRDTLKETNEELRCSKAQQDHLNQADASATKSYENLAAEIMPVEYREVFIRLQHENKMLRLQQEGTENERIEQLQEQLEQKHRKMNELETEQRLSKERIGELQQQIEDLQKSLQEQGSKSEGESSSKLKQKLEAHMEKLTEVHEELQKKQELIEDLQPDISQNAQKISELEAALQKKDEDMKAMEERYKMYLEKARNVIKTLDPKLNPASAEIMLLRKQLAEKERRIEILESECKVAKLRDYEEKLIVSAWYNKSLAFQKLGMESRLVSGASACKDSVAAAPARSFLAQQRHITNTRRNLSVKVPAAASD

Experimental findings from article PMC12203921 are described below.

Experiment [1] addresses T1, coiled-coil domain-containing 13 (CCDC13) (mouse (endogenous in testis)) (UniProt D3YV10).
T1 sequence: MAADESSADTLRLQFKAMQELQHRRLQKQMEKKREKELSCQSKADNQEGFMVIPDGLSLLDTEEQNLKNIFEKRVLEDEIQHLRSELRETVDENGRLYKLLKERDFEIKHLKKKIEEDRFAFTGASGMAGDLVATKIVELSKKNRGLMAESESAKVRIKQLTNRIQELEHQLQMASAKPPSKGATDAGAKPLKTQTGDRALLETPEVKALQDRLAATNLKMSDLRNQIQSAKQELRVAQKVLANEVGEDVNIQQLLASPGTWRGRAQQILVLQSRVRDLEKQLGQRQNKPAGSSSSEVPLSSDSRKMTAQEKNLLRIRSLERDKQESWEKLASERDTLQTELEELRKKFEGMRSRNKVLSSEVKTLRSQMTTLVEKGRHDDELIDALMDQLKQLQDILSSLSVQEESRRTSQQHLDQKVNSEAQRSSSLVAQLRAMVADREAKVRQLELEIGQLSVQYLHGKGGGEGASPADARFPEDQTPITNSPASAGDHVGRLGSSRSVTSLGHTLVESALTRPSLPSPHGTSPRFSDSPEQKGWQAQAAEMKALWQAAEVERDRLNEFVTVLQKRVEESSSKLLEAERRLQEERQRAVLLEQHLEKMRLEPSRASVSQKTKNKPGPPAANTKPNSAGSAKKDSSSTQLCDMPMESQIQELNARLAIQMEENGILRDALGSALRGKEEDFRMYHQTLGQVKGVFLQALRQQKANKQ
The experiment can be described thus: co-IP; endogenous proteins in mouse testis lysate (150 mM NaCl, 20 mM HEPES, 1 mM DTT, 0.5% NP-40, pH 7.3); antibody overnight at 4 °C, protein A/G agarose beads, 4 washes, western blot. (In general: A western blot detects proteins with antibodies after separation by electrophoresis.)

In experiment [2] the target is pericentriolar material 1 (PCM1) (mouse (endogenous in testis)) (UniProt Q9R0L6). Described as above.

Take IFT172 (from UniProt Q6VH22 1-1749): the binding entry in experiment [1] and in experiment [2] was “binds” throughout.

With KIF3A (from UniProt P28741 1-701), the binding entry in experiment [1] and in experiment [2] was “binds” throughout.

On to HOOK1 (from UniProt Q8BIL5 1-728), for which the binding entry is given as “binds” in experiment [1] and “no binding” in experiment [2].

B1: ODF2 (protein, UniProt A3KGV1 1-830)
chain: MSASSSGGSPRFPSCGKNGVTSLTQKKVLRTPCGAPSVTVTKSHKRGMKGDTVNVRRSVRVKTKVPWMPPGKSSARHVGCKWENPPHCLEITPPSSEKLVSVMRLSDLSTEDDDSGHCKMNRYDKKIDSLMNAVGCLKSEVKMQKGERQMAKRFLEERKEELEEVAHELAETEHENTVLRHNIERIKEEKDFTMLQKKHLQQEKECLMSKLVEAEMDGAAAAKQVMALKDTIGKLKTEKQMTCTDINTLTRQKELLLQKLSTFEETNRTLRDLLREQHCKEDSERLMEQQGTLLKRLAEADSEKARLLLLLQDKDKEVEELLQEIQCEKAQAKTASELSKSMESMRGHLQAQLRCKEAENSRLCMQIKNLERSGNQHKAEVEAIMEQLKELKQKGDRDKETLKKAIRAQKERAEKSEEYAEQLHVQLADKDLYVAEALSTLESWRSRYNQVVKDKGDLELEIIVLNDRVTDLVNQQQSLEEKMREDRDSLVERLHRQTAEYSAFKLENERLKASFAPMEDKLNQAHLEVQQLKASVKNYEGMIDNYKSQVMKTRLEADEVAAQLERCDKENKMLKDEMNKEIEAARRQFQSQLADLQQLPDILKITEAKLAECQDQLQGYERKNIDLTAIISDLRSRIEHQGDKLEMAREKHQASQKENKQLSQKVDELERKLEATSAQNVEFLQVIAKREEAIHQAQLRLEEKTRECGSLARQLESAIEDARRQVEQTKEQALSKERAAQSKILDLETQLSRTKTELGQLRRTRDDADRRYQSRLQDLKDRLEQSESTNRSMQNYVQFLKASYANVFGDAPYTSSYLTSSPIRSRSPPA
As to B1, the binding entry is reported as “binds” in experiment [1] and “no binding” in experiment [2].

B2: IFT81 (protein, UniProt O35594 1-676)
chain: MSDQIKFIVDSLNKEPFKKNYNLITFDSLGPMQLLQVLNDVLAEIDPKQDVDIREEMPEQTAKRMLNLLGILKYKPPGNATDMSTFRQGLVIGSKPVIYPVLHWLLQRSNELKKRAYLARFLIKLEVPSEFLQDETVADTNKQYEELMEAFKTLHKECEQLKTSGFSTAEIRRDISAMEEEKDQLMKRVERLKKRVETVQNHQRMLKIARQLRVEKEREEFLAQQKQEQKNQLFHAVQRLQRVQNQLKSMRHAAADAKPESLMKRLEEEIKFNSYMVTEKFPKELESKKKELHFLQKVVSEPAMGHSDLLELETKVNEVNTEINQLIEKKMMRNEPIEGKLSLYRQQASIISRKKEAKAEELQETKEKLASLEREVLVKTNQTREFDGTEVLKGDEFKRYVSKLRSKSTVFKKKHQIIAEFKAEFGLLQRTEELLKQRQETIQHQLRTIEEKKGISGYSYTQEELERVSALKSEVDEMKGRTLDDMSEMVKKLNSLVSEKKSALAPVIKELRQLRQKCQELTQECDEKKAQYDSCAAGLESNRSKLEQEVRGLREECLQEESKYHYTNCMIKNLEVELRRATDEMKAYVSSDQQEKRKAIREQYTKNITEQENLGKKLREKQKAVRESHGPNMKQAKMWRDLEQLMECKKQCFLKQQSPASIGQVIQEGGEDRLVL
Turning to B2, the binding result in experiment [1] and in experiment [2] was “binds” in each case.

B3: IFT74 (protein, UniProt Q8BKE9 1-600)
chain: MASNHKSSAPRPISRGGIGLTGRPPSGIRPPSGNVRVATAMPPTTARPGSRGGPLGTGGVLSSQIKVADRPVTQQGLSGMKTGMKGPQRQILDKSYYLGLLRSKISELTTEINKLQKEIEMYNQENSVYLSYEKRAETLAVEIKDFQGQLADYNMLVDKLNTNTEMEEVMSDYNMLKAQNDRETQSMDVIFTERQAKEKQIRSVEEEVEQEKQAADGIIKNMSPEKQVKYIEMKTTNEKLLQELDTLQQQLDSLNMKKESLETEIAHSQVKQEAVLLYEKLYELESHRDQMIAEDKSMGSPMEERERLLKQVKEDNQEIASMERQLTDIKEKINQFSEEIRQLDMDLEEHQGEMNQKYKELKKREENMDAFIETFEETKNQELERKAQIEASIITLLEHCSRNINRMKQISSITNQELKMMQDDLSFKSTEMQKSQTTARNLTSDSQRLQLDLQKMELLESKMTEEQQSLKNKIKQMTADLETYSDLAALKSSAEEKKKKLHQERTVLSTHRNAFKKIMEKLTSDYDTLKRQLQDNETHAQLTNLERKWQHLEQNNFVMKEFIATKSQESDYQPVIKNVMKQIAEYNKTIMDALHNASRS
Regarding B3, the binding result in experiment [1] and in experiment [2] was “binds” throughout.

B4: MNS1 (protein, UniProt Q61884 1-491)
chain: MATKKRALSFSEKHQKLVDEKFRKSLNIQVMNKLERQAKNQVVQNENDEKVERQRFLRVLQNEQFELDMEEAIQKAEANKMLRDRQLEQEERLANELARLKHESLKDKKMRQQVRENSIELRELEQKLKAAYMNKERAAQIVEKDAMKYEQMKRDAEIERIMMEEHDRLLKEESAKQERRNKERAQYYLDLEKQLEDQERRKQEAYEQLLKEKLMIDEIVRKIYEEDQVERQQKLEKKNAIQKYIEEFQRAQDFWRQKKREEMEEENRKIIEFANIQEQREGERMARVHEIEEKRVQRQNLLMKQLEETLRQRDDLEQVRQELYQEEQAEIIKLKVKEEAELRLRRQREMKQDFEDQMALKELILQAAKEEEETFKKAMLAKFAEDDRIELMNAQKQRMKQLEHKRAVEKLIEERRSQFLADKQRELEELQLQQRRQGCINEIIEEERLRLLKEHAAKLLGYLPKGVFKREDDVDMLGEEFRKAYQKRDGV
In the case of B4, the binding result in experiment [1] and in experiment [2] was “binds” in each case.
